According to PMC6602471:
The other results are listed elsewhere or left out. At the low end of the ranking, values are background and their order means little.

target: T1, ELK1 (UniProt P19419); assay: custom PBM; details: custom protein-binding microarray; buffer, salt, pH and temperature not stated; high values mean tight binding; double strand, one strand shown
T1 sequence: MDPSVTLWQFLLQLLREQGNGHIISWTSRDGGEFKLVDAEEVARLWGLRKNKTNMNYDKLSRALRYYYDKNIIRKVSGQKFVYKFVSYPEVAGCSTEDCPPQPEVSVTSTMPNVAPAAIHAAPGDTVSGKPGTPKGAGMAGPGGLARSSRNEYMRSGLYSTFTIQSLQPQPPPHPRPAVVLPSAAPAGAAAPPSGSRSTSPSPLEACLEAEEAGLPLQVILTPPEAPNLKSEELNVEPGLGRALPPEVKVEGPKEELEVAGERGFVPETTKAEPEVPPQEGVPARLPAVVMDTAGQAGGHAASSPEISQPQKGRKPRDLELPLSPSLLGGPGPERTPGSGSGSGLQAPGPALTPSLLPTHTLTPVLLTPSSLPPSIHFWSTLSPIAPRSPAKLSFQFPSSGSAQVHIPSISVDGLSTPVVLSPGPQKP

Q: “TCCGGCTACGAGCTCCACCCACTTCAGGCCTTGTAGGTCTTGATTCGCTTGACGCTGCTG” was tested. Which binding signal (log fluorescence intensity) did it give?
A: 8.91

Q: For “GCTGCTGCAGTGCATACCCCACCGGATGTGACCCCGGTCTTGATTCGCTTGACGCTGCTG”, which binding signal (log fluorescence intensity) is on record?
A: 10.1

Q: “TAAAGGGAAGACGGTTGTGGTAGTTCCGGGAATTAAGTCTTGATTCGCTTGACGCTGCTG” was tested. Which binding signal (log fluorescence intensity) did it give?
A: 11.2

Q: How did the binding signal (log fluorescence intensity) turn out when “CGGAAGTGTCGTAAAAGTCGGATATCCGGTTCTTCTGTCTTGATTCGCTTGACGCTGCTG” was run?
A: 12.5

Q: How did the binding signal (log fluorescence intensity) turn out when “CAGAATAGGACTTCTTCCCTGAAGCAATTGATAACCGTCTTGATTCGCTTGACGCTGCTG” was run?
A: 9.06

Q: With “CTGGGAATTGACCCAACTCTGCCACGTGGGTCGTTTGTCTTGATTCGCTTGACGCTGCTG” as the sequence, how does the binding signal (log fluorescence intensity) read?
A: 9

Q: Which binding signal (log fluorescence intensity) does the source give for “CTGTATAGGATCCCATCCAACACACGTGTTAAAATGGTCTTGATTCGCTTGACGCTGCTG” here?
A: 8.9

Q: Which binding signal (log fluorescence intensity) does the source give for “GATTAATTTCTGCCCTTGTTCGCACGTGCCATAACAGTCTTGATTCGCTTGACGCTGCTG” here?
A: 9.06

Q: How did the binding signal (log fluorescence intensity) turn out when “CAGCATAGGACTTGTTCCCTGAAGCAATTGATAACCGTCTTGATTCGCTTGACGCTGCTG” was run?
A: 8.97

Q: With “TCCGGCGACCAGCTCCACCCACTTCAGGCCTTGTAGGTCTTGATTCGCTTGACGCTGCTG” as the sequence, how does the binding signal (log fluorescence intensity) read?
A: 9.03

Q: “TCCGGCTACCACCTCCACCCACTTCAGGCCTTGTAGGTCTTGATTCGCTTGACGCTGCTG” was tested. Which binding signal (log fluorescence intensity) did it give?
A: 8.92

Q: “GCTGCTGCGGTGCATACCCCACCGGAGGTGACCCCGGTCTTGATTCGCTTGACGCTGCTG” was tested. Which binding signal (log fluorescence intensity) did it give?
A: 9.01

Q: For “GTTTAATTTCTGCCCTTATTCGCACGTGCCATAACAGTCTTGATTCGCTTGACGCTGCTG”, which binding signal (log fluorescence intensity) is on record?
A: 8.91

Q: How did the binding signal (log fluorescence intensity) turn out when “TGGAAGTGTCGTAAACGTCGGATATCCGGTTCTTCTGTCTTGATTCGCTTGACGCTGCTG” was run?
A: 12.5

Q: How did the binding signal (log fluorescence intensity) turn out when “TCCGGCTACCAGCTCCACCCACTTCAGGCCTAGTAGGTCTTGATTCGCTTGACGCTGCTG” was run?
A: 8.96

Q: “TATTAATTTCTGCCCTTATTCGCACGTGCCATAACAGTCTTGATTCGCTTGACGCTGCTG” was tested. Which binding signal (log fluorescence intensity) did it give?
A: 8.91

Q: For “TACTGACTTATATATGCGAATACACATGAATAGACCGTCTTGATTCGCTTGACGCTGCTG”, which binding signal (log fluorescence intensity) is on record?
A: 8.85

Q: “TGTCGGGTAAGGGAATGTAGATCACGCGAATGAAAAGTCTTGATTCGCTTGACGCTGCTG” was tested. Which binding signal (log fluorescence intensity) did it give?
A: 8.89

Q: Which binding signal (log fluorescence intensity) does the source give for “TGTCGGGTAAGGGACTGTAGATCACGTGAATGAAAAGTCTTGATTCGCTTGACGCTGCTG” here?
A: 8.79

Q: With “GTGTATAGGATCCCATCCAACACACGTGTCAAAATGGTCTTGATTCGCTTGACGCTGCTG” as the sequence, how does the binding signal (log fluorescence intensity) read?
A: 8.93

Q: Which binding signal (log fluorescence intensity) does the source give for “GTGTAGAGGATCCCATCCAACACACGTGTTAAAATGGTCTTGATTCGCTTGACGCTGCTG” here?
A: 8.89

Q: For “TAAAGGGAAGACGGTGGTGGTAGTTCCGGGTATTAAGTCTTGATTCGCTTGACGCTGCTG”, which binding signal (log fluorescence intensity) is on record?
A: 11.1

Q: “CACAATTTTTACAGTAAAGTAGCACGCGTAACTCCTGTCTTGATTCGCTTGACGCTGCTG” was tested. Which binding signal (log fluorescence intensity) did it give?
A: 8.77

Q: Which binding signal (log fluorescence intensity) does the source give for “TCCGGCTACCAGCTCCACCCACATCAGGCCTTGTAGGTCTTGATTCGCTTGACGCTGCTG” here?
A: 8.93

Q: With “TAAAGGGAACACGGTTGTGGTAGTTCCGGGTATTAAGTCTTGATTCGCTTGACGCTGCTG” as the sequence, how does the binding signal (log fluorescence intensity) read?
A: 11.2

Q: Which binding signal (log fluorescence intensity) does the source give for “CTGGGACTTGACCCAACTCTGCCACGTGGGTCGTTCGTCTTGATTCGCTTGACGCTGCTG” here?
A: 8.99

Q: How did the binding signal (log fluorescence intensity) turn out when “CGGAAGTATCGTAAACGTCGGATATCCGGTTCTTCTGTCTTGATTCGCTTGACGCTGCTG” was run?
A: 12

Q: Which binding signal (log fluorescence intensity) does the source give for “CAGCATAGGACTTCTTCCCTGAATCAATTGATAACCGTCTTGATTCGCTTGACGCTGCTG” here?
A: 8.76

Q: For “GCTGCTGCGGTGCATACCCCTCCGGATGTGACCCCGGTCTTGATTCGCTTGACGCTGCTG”, which binding signal (log fluorescence intensity) is on record?
A: 9.59

Q: “GTAAAAAGGCCCAGGGTAACACCGGAAGTGGGCTTAGTCTTGATTCGCTTGACGCTGCTG” was tested. Which binding signal (log fluorescence intensity) did it give?
A: 10.9

Q: Which binding signal (log fluorescence intensity) does the source give for “GATTAATTTCTGCCCTAATTCGCACGTGCCATAACAGTCTTGATTCGCTTGACGCTGCTG” here?
A: 8.74

Q: Which binding signal (log fluorescence intensity) does the source give for “GATTAATTTCTGCCTTTATTCGCACGTGCCATAACAGTCTTGATTCGCTTGACGCTGCTG” here?
A: 8.9

Q: For “GTGTATAGGATCCGATCCAACACACGTGTTAAAATGGTCTTGATTCGCTTGACGCTGCTG”, which binding signal (log fluorescence intensity) is on record?
A: 9.83

Q: How did the binding signal (log fluorescence intensity) turn out when “TCCGGCTACCAGCTCCACCCAATTCAGGCCTTGTAGGTCTTGATTCGCTTGACGCTGCTG” was run?
A: 8.93

Q: Which binding signal (log fluorescence intensity) does the source give for “GGAAAAAGGCCCAGGGTGACACCGGAAGTGGGCTTAGTCTTGATTCGCTTGACGCTGCTG” here?
A: 10.9

Q: With “TCCGGCTACCAGCTCCACACACTTCAGGCCTTGTAGGTCTTGATTCGCTTGACGCTGCTG” as the sequence, how does the binding signal (log fluorescence intensity) read?
A: 8.94

Q: How did the binding signal (log fluorescence intensity) turn out when “TAAAGGGATGACGGTTGTGGTAGTTCCGGGTATTAAGTCTTGATTCGCTTGACGCTGCTG” was run?
A: 11

Q: How did the binding signal (log fluorescence intensity) turn out when “GGAAAAAGGCCCAGGGTAACACCGGAAGTGGGCTTCGTCTTGATTCGCTTGACGCTGCTG” was run?
A: 11.1

Q: Which binding signal (log fluorescence intensity) does the source give for “TGTCGGGTTAGGGAATGTAGATCACGTGAATGAAAAGTCTTGATTCGCTTGACGCTGCTG” here?
A: 8.85

Q: With “GGAAAAAGGCCCAGGGTCACACCGGAAGTGGGCTTAGTCTTGATTCGCTTGACGCTGCTG” as the sequence, how does the binding signal (log fluorescence intensity) read?
A: 10.9
